Laboratory results as given in article PMC5515408.
The list shows a part of the results. At the low end of the ranking the order means little.

The sequences below were run against MAX:MAX (p21) (UniProt P61244-2) (assay: protein-binding microarray (anti-MAX antibody)). Settings: PBM: 15 mM Tris-HCl pH 7.5, 100 mM KCl, 0.075% NP40, 7.5 mM beta-mercaptoethanol, 375 ng/ul BSA, 8 ng/ul poly(dA-dT):(dA-dT), 550 ng complex, 60 min, room …; high values mean tight binding; double strand, one strand shown; sequences stand for … in CCGGC…TTAATAGCTAAGATTACTATATCGACG.

Sequence	binding signal (log2 normalized fluorescence)
TGAACCACGGTA	0.954
TGAGCGGTGGTA	-0.339
TGACTTCTAGTA	-1.1
TGACACGAAATA	0.577
TGAACGCCGGTA	-0.00954
TGACTAATGGTA	-0.355
TGAAGACTGGTA	-0.549
TGATACTGCGTA	-0.682
TGAATACCAGTA	-0.888
TGATCGTCCGTA	-0.779
TGAAGGCTGGTA	-0.432
TGATTTGGTGTA	-1.16
TGAGAACATGTA	0.942
TGAAAGAGGGTA	-0.622
TGACACGTGATT	3.22
TGACTACCAGTA	-0.616
TGAACAGGGGTA	0.31
TGATAGCCCGTA	-1.08
TGACCCAGCGTA	-0.435
AAGGGTTTTCTA	-0.273
TGAACCGTGGTC	1.31
TGATTAGATGTA	-1.05
CTTACCACCCAG	0.89

Sequence	binding signal (log2 normalized fluorescence)
TGACATAGAGTA	-0.379
TGACTATTAGTA	-0.887
TGAAACGTTGTA	0.655
TGATTGTTGGTA	-0.855
TCGGACGTGGTA	1.17
TGATAACGAGTA	-0.258
TGATGGCACGTA	1.08
TGAACCCCCGTA	-0.133
TGAACCACAGTA	-0.226
TGATACTGTGTA	-0.658
CCGCTTAATTTC	-1.02
TGAGGCCCGGTA	-1.01
TGATACGCCGTA	-0.497
TGACCGCGCGTA	1.24
TGACTTCCTGTA	-0.849
TGACGATGCGTA	0.115
TGAATTCTAGTA	-0.709
TGAATAAAGGTA	-0.47
TTAAAAGTGGTA	-0.41
TTACACGTGATA	3.31
TGAAAACCGGTA	-0.585
TGAGAGCGCGTA	-0.456
TGACCCGGGGTA	0.0808

Sequence	binding signal (log2 normalized fluorescence)
TGACGCGTGGTG	3.08
CCCCGTGGTTAC	2.98
TGACGTCAAGTA	-0.203
TGAGAGCCGGTA	-0.711
TGAGGGACAGTA	-0.217
TGAAGTGCCGTA	-0.25
TGACGCCCCGTA	-0.228
TGAATCGGCGTA	-0.762
TGAGGACCAGTA	-0.622
TGAGGCATGGTA	2.39
TGAGACATCGTA	-0.642
TGATGAGAAGTA	-0.622
TGAGGAATAGTA	-1.02
TGAGTTCGTGTA	-0.151
TGATTTTGGGTA	-1.36
TGAGAGCAAGTA	-0.426
TGAAGCCTTGTA	-0.759
AAGTAGCGCACA	1.4
AGGGTGTACTGG	1.66
TGAGCATACGTA	0.19
TGAGCAGAGGTA	-0.746
TGACAAGGGGTA	0.333
TGACAAGCGGGA	-0.154

Sequence	binding signal (log2 normalized fluorescence)
TGATAACCTGTA	-0.152
TGAAACTGCGTA	-0.521
TGAAATTATGTA	-1.08
TGAGAAGAAGTA	-1.09
TGATGGAGGGTA	-0.0145
TGACGTGGAGTA	1.1
TGATGTTTCGTA	-0.105
TGAATGCGTGTA	1.68
TGAGGTAAAGTA	-0.641
TGACCTAGAGTA	-1.04
TGACACGTTTCA	2.68
TGACCCAGAGTA	-0.816
TGAATCGGTGTA	-0.939
TGATCGCTTGTA	-0.757
TGATCTAGGGTA	-1.15
TGACTTATAGTA	-0.852
TGACACAAGGTA	1.62
TGACCTCTTGTA	-0.541
TGAAGTCCGGTA	-0.959
TGAGAGTGCGTA	0.05
TGATGGGCGGTA	0.357
TGAGTTCATGTA	-0.156
TGACATCTCGTA	-0.176

Sequence	binding signal (log2 normalized fluorescence)
TGATGAAGCGTA	-0.5
TCCTACGTGGTA	1.8
TGAGACTTTGTA	-0.891
TGAAGGACAGTA	-0.583
TGAATTACCGTA	-0.746
TGAGTCTGGGTA	-1.24
TGACATGGTGTA	1.41
TGAAACCGTGTA	0.451
TGACTGTTTGTA	-0.256
TGAGTGTGCGTA	0.941
TGAAACCTGGTA	0.073
TGGCAACTGGTA	-0.185
GGATACGTGGTA	1.37
TGACTTGTTGTA	-0.435
TGAAAAAAGGTA	-0.932
TTGCACTTGGTA	0.423
TGAAAAGCTGTA	-0.605
TGAGGCTCAGTA	-0.598
GGCCACGTGGTA	3.16
TGATGCGATGTA	-0.205
TGACGACCCGTA	-0.197
TGATGAGGCGTA	-0.459
TGAAGAACGGTA	-0.55

Sequence	binding signal (log2 normalized fluorescence)
TGAGGGGACGTA	0.311
TGATGGAAAGTA	-0.184
TGACATACTGTA	0.606
TGACCCACCGTA	-0.0369
TGACGGATGGTA	0.163
TGATCAGCGGTA	0.0982
TGACCCTTCGTA	-0.598
TGACACGTTATA	2.87
TGAGGGATAGTA	-0.743
TGATCTACAGTA	-1.13
TGACCCGTGGTC	2.7
TGAATTTTCGTA	-1.03
TGATACGTGGCA	1.26
TGAAAGGGGGTA	1.01
TGAACTAACGTA	-0.626
TGACCCCATGTA	2.12
TTCGTCCAAGGC	-1.14
TGATGCCTGGTA	0.158
CAATGTCTTAAC	0.0404
TGAGGCAAGGTA	0.0957
TGATTTGATGTA	-0.882
TGAAGGTGGGTA	0.192
TGAGCTTTGGTA	-1.42
